{"source": "PubChem BioAssay (NCI)", "note": "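Protocol summary: plate cells (96-well), add compound at 5 concentrations, incubate 48 h, interpolate endpoints linearly. TGI marks complete inhibition of growth.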"}
{"tested_on": "NCI-H322M lung", "experiment": "NCI-60 cell line screen, 48 h", "units": {"TGI": "µM"}}
{"compound": "NC(N)=NCCCC(NC(=O)OCCCCCCn1ccc(N)nc1=O)C(=O)O", "note": "(stereo not given)", "TGI": "> 100"}
{"compound": "NC(=O)c1[nH]cnc1/N=N/SCC(N)C(=O)O", "note": "(stereo not given)", "TGI": "> 100"}
{"compound": "CC(C)C1OC(/C=C/c2ccccc2)OCC1(C)C", "note": "(stereo not given)", "TGI": "> 100"}
{"compound": "COc1cc(-c2cc(=O)c3cc(C)c(C)c(C(=O)O)c3o2)cc(OC)c1OC", "TGI": "> 100"}
{"compound": "O=C1/C(=C/c2ccco2)N=C(c2ccccc2)N1c1cc2cc(Sc3ccccc3)ccc2[nH]1", "TGI": "> 25"}
